Measurements: article PMC7070046, “Sjögren syndrome/scleroderma autoantigen 1 is a direct Tankyrase binding partner in cancer cells” (Communications Biology, 2020)
Positions count from the first letter of the chain named. These are yes or no findings as the source states them, for the method shown. Binding seen in cells or lysates may run through a third protein. Some binding calls cover weakened binding; strength is not graded here. For part of these data: Sequences can lack the tags named with a protein.

By UniProt entry, the sequences of proteins in these tests, tags left out. Where a name states a change or a piece, a line headed by the entry shows the natural chain unless it says otherwise. Residues count along the entry.
UniProt O95271: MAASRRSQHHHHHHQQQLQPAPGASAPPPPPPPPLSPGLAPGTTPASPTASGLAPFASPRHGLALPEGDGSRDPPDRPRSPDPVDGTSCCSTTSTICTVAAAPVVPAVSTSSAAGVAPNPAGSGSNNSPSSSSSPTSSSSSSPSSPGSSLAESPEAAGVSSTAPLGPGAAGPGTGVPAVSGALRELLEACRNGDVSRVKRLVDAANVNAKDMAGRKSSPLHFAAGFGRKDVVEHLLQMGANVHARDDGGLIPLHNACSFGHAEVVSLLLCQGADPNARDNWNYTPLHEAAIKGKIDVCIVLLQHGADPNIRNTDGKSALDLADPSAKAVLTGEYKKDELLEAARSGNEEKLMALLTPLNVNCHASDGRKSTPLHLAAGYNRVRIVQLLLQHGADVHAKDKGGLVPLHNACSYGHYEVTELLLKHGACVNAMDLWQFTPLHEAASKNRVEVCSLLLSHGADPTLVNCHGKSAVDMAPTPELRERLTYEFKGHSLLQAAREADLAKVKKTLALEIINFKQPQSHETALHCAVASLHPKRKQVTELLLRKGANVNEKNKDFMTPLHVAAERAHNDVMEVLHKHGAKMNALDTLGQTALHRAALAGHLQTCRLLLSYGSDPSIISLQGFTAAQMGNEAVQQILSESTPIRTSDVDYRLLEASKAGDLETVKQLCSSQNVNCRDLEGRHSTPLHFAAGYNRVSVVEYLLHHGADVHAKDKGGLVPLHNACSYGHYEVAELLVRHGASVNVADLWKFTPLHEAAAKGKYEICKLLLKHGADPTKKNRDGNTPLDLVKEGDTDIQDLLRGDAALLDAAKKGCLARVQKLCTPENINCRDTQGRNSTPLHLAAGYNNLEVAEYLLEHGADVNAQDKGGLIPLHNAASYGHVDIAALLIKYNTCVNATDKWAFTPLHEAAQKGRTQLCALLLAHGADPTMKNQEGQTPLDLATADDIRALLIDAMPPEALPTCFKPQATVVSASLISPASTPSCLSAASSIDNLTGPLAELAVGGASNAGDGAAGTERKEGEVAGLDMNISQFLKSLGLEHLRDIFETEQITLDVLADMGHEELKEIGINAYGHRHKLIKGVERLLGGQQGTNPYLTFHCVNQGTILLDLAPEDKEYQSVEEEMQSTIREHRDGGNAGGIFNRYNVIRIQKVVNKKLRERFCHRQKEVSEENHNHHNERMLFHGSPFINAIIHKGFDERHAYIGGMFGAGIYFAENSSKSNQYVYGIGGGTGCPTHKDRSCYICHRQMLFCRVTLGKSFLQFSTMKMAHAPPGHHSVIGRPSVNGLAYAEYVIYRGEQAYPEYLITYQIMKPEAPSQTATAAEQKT
TNKS1-Δ(SAM-PARP) (residues 1–975): residues 1-975 of O95271
TNKS1-Δ(ARC4-PARP) (residues 1–634): residues 1-634 of O95271
TNKS1-Δ(ARC3-PARP) (residues 1–502): residues 1-502 of O95271
TNKS1-Δ(ARC2-PARP) (residues 1–331): residues 1-331 of O95271
TNKS1-Δ(ARC1-ARC4) (residues 835–1327): residues 835-1327 of O95271
TNKS1-Δ(ARC1-ARC5) (residues 1014–1327): residues 1014-1327 of O95271

T1: SSSCA1-Δ(Pro-H2) (residues 2–84) (human) (UniProt O60232)
T1 sequence: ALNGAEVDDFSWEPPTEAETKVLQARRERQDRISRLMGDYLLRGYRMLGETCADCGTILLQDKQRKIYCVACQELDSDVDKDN

T2: SSSCA1-H2_(Leu/Ala) (L180A, L183A, I184A, L191A, L194A, L197A) (human) (UniProt O60232)
T2 sequence: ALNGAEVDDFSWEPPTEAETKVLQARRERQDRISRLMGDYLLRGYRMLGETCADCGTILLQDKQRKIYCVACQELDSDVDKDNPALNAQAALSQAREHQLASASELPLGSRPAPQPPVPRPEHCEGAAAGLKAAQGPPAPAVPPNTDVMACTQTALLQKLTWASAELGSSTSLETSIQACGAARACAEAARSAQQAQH

T3: SSSCA1-Δ(H1–H2) (residues 2–147) (human) (UniProt O60232)
T3 sequence: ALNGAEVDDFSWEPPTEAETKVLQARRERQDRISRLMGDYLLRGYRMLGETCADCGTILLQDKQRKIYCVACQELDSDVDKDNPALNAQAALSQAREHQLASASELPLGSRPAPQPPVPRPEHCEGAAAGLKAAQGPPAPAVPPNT

T4: SSSCA1-ΔZn (residues 85–199) (human) (UniProt O60232)
T4 sequence: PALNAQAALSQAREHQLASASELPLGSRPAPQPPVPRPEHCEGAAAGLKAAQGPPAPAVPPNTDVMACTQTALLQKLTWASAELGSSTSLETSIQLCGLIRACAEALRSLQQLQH

T5: SSSCA1-Δ(midPro-H2) (residues 2–111) (human) (UniProt O60232)
T5 sequence: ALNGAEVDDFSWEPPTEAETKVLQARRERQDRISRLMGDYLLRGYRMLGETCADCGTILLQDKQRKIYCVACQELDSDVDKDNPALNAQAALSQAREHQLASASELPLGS

T6: His-GFP-SSSCA1 (SSSCA1 FL, residues A2-H199) (human) (UniProt O60232)
T6 sequence: T2 sequence with A179L, A182L, A183I, A190L, A193L, A196L

T7: SSSCA1-ΔH2 (residues 2–172) (human) (UniProt O60232)
T7 sequence: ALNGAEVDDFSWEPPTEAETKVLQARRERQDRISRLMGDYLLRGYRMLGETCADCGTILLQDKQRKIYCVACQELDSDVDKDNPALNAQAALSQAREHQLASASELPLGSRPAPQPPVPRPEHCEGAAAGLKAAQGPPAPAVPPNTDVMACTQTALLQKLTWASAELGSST

T8: SSSCA1-Δ(Zn-Pro) (residues 149–199) (human) (UniProt O60232)
T8 sequence: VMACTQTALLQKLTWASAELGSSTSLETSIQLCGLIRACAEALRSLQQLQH

B1: SSSCA1, endogenous (protein, UniProt O60232 1-199)
chain: MALNGAEVDDFSWEPPTEAETKVLQARRERQDRISRLMGDYLLRGYRMLGETCADCGTILLQDKQRKIYCVACQELDSDVDKDNPALNAQAALSQAREHQLASASELPLGSRPAPQPPVPRPEHCEGAAAGLKAAQGPPAPAVPPNTDVMACTQTALLQKLTWASAELGSSTSLETSIQLCGLIRACAEALRSLQQLQH

Tests used:
[1] = target: T1, SSSCA1-Δ(Pro-H2) (residues 2–84) (human); assay: co-IP; tandem-affinity purification (His SpinTrap, then GFP-Trap A beads) of His-GFP-tagged SSSCA1 constructs from transfected cells (HeLa; full length also SW480 and LNCaP), endogenous partner detected by western blotting
[2] = target: T2, SSSCA1-H2_(Leu/Ala) (L180A, L183A, I184A, L191A, L194A, L197A) (human); assay: as above
[3] = target: T3, SSSCA1-Δ(H1–H2) (residues 2–147) (human); assay: as above
[4] = target: T4, SSSCA1-ΔZn (residues 85–199) (human); assay: as above
[5] = target: T5, SSSCA1-Δ(midPro-H2) (residues 2–111) (human); assay: as above
[6] = target: T6, His-GFP-SSSCA1 (SSSCA1 FL, residues A2-H199) (human); assay: as above
[7] = target: T7, SSSCA1-ΔH2 (residues 2–172) (human); assay: as above
[8] = target: T8, SSSCA1-Δ(Zn-Pro) (residues 149–199) (human); assay: as above
[9] = target: TNKS1-Δ(ARC1-ARC4) (residues 835–1327) (human) (UniProt O95271); assay: co-IP; tandem-affinity purification (His SpinTrap, then GFP-Trap A beads) of His-GFP-tagged TNKS1 constructs from transfected HeLa cells, endogenous SSSCA1 detected by western blotting
[10] = target: TNKS1-Δ(ARC2-PARP) (residues 1–331) (human) (UniProt O95271); assay: as above
[11] = target: TNKS1-Δ(ARC4-PARP) (residues 1–634) (human) (UniProt O95271); assay: as above
[12] = target: TNKS1-Δ(SAM-PARP) (residues 1–975) (human) (UniProt O95271); assay: as above
[13] = target: TNKS1-Δ(ARC1-ARC5) (residues 1014–1327) (human) (UniProt O95271); assay: as above
[14] = target: TNKS1-Δ(ARC3-PARP) (residues 1–502) (human) (UniProt O95271); assay: as above
[15] = target: His-GFP-TNKS1 FL (residues 1–1327) (human) (UniProt O95271); assay: as above

Row | Molecule | binding [1] | binding [2] | binding [3] | binding [4] | binding [5] | binding [6] | binding [7] | binding [8] | binding [9] | binding [10] | binding [11] | binding [12] | binding [13] | binding [14] | binding [15]
1 | Tankyrase 1 (TNKS1), endogenous (from UniProt O95271 1-1327) (enzyme) | no binding | no binding | no binding | binds | no binding | binds | no binding | binds |  |  |  |  |  |  | 
2 | B1 |  |  |  |  |  |  |  |  | no binding | no binding | binds | binds | no binding | binds | binds
